# Measured values: paper PMC5931552
# The chains behind the UniProt entries cited, without tags or fusion partners. Residues count along the entry.
# UniProt O75581, residues 20-1370: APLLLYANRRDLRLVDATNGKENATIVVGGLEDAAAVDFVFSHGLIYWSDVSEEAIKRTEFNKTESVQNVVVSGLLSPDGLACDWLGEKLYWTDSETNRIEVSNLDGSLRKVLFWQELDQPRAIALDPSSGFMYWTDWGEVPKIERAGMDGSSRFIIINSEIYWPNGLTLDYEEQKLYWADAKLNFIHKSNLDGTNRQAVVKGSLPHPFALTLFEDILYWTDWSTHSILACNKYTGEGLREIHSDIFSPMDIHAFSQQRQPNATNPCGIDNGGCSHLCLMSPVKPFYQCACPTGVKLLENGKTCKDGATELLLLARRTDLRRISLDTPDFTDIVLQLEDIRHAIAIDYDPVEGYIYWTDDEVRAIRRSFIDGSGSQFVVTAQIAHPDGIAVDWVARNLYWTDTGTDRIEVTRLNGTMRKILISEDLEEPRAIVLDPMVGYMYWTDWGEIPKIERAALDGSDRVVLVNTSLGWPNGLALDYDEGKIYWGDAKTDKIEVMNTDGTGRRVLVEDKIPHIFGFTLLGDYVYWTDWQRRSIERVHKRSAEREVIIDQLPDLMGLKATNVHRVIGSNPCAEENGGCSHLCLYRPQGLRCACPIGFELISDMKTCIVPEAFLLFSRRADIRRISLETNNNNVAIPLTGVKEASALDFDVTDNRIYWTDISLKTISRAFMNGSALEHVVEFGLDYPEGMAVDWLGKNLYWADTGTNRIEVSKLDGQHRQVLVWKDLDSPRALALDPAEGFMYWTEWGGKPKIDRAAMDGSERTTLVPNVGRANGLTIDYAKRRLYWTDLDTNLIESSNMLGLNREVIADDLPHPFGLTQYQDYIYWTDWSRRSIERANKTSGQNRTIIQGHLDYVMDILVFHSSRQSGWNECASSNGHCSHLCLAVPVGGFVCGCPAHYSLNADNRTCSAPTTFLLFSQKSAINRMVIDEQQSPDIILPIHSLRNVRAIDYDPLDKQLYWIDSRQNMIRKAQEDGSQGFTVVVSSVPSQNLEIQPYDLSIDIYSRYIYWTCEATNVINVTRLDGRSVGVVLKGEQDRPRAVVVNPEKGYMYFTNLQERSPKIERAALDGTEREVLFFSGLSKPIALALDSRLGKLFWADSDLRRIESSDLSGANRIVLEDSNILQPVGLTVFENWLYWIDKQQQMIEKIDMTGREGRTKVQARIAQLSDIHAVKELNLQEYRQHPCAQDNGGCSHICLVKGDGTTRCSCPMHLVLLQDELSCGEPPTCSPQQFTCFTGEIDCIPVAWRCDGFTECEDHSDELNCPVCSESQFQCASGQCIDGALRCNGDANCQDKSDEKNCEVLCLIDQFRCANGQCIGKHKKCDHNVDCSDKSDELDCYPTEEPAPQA
# UniProt Q61091, residues 28-685: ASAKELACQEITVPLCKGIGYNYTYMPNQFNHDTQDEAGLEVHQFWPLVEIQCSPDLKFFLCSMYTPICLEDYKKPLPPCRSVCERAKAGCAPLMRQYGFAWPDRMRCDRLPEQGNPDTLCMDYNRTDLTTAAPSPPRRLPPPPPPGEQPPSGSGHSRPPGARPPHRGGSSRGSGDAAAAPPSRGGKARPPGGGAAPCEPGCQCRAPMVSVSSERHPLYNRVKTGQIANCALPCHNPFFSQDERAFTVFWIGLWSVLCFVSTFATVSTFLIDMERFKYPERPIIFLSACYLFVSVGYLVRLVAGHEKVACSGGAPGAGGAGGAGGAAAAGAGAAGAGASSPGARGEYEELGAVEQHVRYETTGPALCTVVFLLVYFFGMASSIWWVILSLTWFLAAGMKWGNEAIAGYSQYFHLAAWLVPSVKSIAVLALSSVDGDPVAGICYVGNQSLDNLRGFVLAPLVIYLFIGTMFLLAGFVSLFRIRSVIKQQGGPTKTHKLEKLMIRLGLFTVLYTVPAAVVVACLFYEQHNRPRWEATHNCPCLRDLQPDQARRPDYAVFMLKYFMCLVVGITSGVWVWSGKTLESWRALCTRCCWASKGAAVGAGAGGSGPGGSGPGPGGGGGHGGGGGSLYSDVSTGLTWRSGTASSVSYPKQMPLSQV
# UniProt P84022: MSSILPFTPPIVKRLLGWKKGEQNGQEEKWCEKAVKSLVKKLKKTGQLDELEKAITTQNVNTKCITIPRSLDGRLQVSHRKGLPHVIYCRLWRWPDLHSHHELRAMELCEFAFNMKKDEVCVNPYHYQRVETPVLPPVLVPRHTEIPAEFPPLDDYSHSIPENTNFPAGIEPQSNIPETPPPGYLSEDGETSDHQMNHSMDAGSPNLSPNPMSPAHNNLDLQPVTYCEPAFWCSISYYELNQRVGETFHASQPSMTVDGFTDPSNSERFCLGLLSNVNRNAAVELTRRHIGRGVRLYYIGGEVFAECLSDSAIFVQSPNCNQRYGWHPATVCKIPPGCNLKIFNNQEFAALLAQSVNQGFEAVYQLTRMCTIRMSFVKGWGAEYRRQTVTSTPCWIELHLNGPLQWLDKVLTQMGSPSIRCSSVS
# UniProt P37173, residues 23-567: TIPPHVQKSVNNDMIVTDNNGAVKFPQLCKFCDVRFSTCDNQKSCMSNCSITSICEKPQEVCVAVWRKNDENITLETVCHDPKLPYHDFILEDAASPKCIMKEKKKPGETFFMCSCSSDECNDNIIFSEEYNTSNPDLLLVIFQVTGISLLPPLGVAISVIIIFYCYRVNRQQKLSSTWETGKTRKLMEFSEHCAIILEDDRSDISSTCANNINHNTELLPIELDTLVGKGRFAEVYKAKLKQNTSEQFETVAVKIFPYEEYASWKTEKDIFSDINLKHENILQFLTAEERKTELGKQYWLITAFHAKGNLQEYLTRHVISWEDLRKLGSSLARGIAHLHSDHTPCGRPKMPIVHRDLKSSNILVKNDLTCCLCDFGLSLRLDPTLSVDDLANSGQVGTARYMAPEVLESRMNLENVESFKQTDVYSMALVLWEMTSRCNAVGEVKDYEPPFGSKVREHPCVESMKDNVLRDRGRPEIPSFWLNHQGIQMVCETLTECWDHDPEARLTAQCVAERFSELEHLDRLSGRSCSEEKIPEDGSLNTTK
# These are yes or no findings as the source states them, for the method shown. In cells and extracts the contact can be indirect. Some entries that bind do so weakly or less than the wild type. Sequences can lack the tags named with a protein.
# B1: PA-tagged Wnt-11 (ligand, UniProt O96014 25-354)
# chain: IKWLALSKTPSALALNQTQHCKQLEGLVSAQVQLCRSNLELMHTVVHAAREVMKACRRAFADMRWNCSSIELAPNYLLDLERGTRESAFVYALSAAAISHAIARACTSGDLPGCSCGPVPGEPPGPGNRWGGCADNLSYGLLMGAKFSDAPMKVKKTGSQANKLMRLHNSEVGRQALRASLEMKCKCHGVSGSCSIRTCWKGLQELQDVAADLKTRYLSATKVVHRPMGTRKHLVPKDLDIRPVKDSELVYLQSSPDFCMKNEKVGSHGTQDRQCNKTSNGSDSCDLMCCGRGYNPYTDRVVERCHCKYHWCCYVTCRRCERTVERYVCK
# B2: Flag-tagged TGFβRI (pRK5 TGFβR1-Flag) (receptor, UniProt P36897 34-503)
# chain: LQCFCHLCTKDNFTCVTDGLCFVSVTETTDKVIHNSMCIAEIDLIPRDRPFVCAPSSKTGSVTTTYCCNQDHCNKIELPTTVKSSPGLGPVELAAVIAGPVCFVCISLMLMVYICHNRTVIHHRVPNEEDPSLDRPFISEGTTLKDLIYDMTTSGSGSGLPLLVQRTIARTIVLQESIGKGRFGEVWRGKWRGEEVAVKIFSSREERSWFREAEIYQTVMLRHENILGFIAADNKDNGTWTQLWLVSDYHEHGSLFDYLNRYTVTVEGMIKLALSTASGLAHLHMEIVGTQGKPAIAHRDLKSKNILVKKNGTCCIADLGLAVRHDSATDTIDIAPNHRVGTKRYMAPEVLDDSINMKHFESFKRADIYAMGLVFWEIARRCSIGGIHEDYQLPYYDLVPSDPSVEEMRKVVCEQKLRPNIPNRWQSCEALRVMAKIMRECWYANGAARLTALRIKKTLSQLSQQEGIKM
# How the values were obtained:
# HA-ATF2 = target: T1, HA-ATF2 (UniProt P15336); assay: co-IP; PC-3M cells transfected with Flag-SMAD3:HA-ATF2:HA-JUN (5:10:1); immunoprecipitation from the lysate (50 mM Tris-HCl pH 8, 150 mM NaCl, 1% Triton X-100, 1 mM EDTA); Western blot
# T1 sequence: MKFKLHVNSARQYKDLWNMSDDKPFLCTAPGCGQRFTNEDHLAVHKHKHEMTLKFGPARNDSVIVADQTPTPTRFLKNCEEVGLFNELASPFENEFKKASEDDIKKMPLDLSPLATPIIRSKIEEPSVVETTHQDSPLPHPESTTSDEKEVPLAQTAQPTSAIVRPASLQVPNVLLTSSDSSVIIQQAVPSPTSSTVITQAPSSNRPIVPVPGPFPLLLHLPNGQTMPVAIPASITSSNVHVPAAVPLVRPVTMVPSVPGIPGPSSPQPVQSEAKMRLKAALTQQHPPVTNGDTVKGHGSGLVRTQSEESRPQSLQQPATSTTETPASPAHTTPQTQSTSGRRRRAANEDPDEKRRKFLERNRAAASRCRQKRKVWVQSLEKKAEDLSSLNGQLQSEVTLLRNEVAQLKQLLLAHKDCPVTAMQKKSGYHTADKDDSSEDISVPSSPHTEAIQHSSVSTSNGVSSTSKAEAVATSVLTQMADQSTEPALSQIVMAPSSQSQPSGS
# [1] = target: extracellular domain of LRP6 fused to IgG (pCS2 LRP6N-IgG) (UniProt O75581); assay: pull-down; PC-3M cells transfected 24 h with the IgG fusion protein (FZD8-CRD-IgG or LRP6-IgG) and Flag-TGFβRI, HA-TGFβRII or Flag-ALK5-HA(ecto); Protein A/G-agarose pull-down from the lysate without antibody; blots for HA, Flag and IgG
# [2] = target: 1D4-tagged FZD8 (pRK5 mFzd8-1D4) (mouse) (UniProt Q61091); assay: co-IP; PC-3M cells transfected 24 h with FZD8-1D4 and Wnt-11-PA (1:2); lysis in 50 mM Tris-HCl pH 8, 150 mM NaCl, 1% Triton X-100, 1 mM EDTA; anti-1D4 and anti-PA immunoprecipitates on Protein A/G PLUS-Agarose; Western blot
# [3] = target: 1D4-tagged FZD8 (pRK5 mFzd8-1D4) (mouse) (UniProt Q61091); assay: co-IP; PC-3M cells transfected 24 h with FZD8-1D4, TGFβRI-Flag and HA-TGFβRII; treated -/+ 1 ng/ml TGF-β for 30 min in one panel; lysis in 50 mM Tris-HCl pH 8, 150 mM NaCl, 1% Triton X-100, 1 mM EDTA; anti-1D4 immunoprecipitates; blots for HA, Flag and 1D4
molecule,measurement,setting,value
Flag-SMAD3 (from UniProt P84022 1-425),binding,HA-ATF2,no binding
"HA-tagged TGFβRII (pCMV5B TGFβR2 wild-type, N-terminal HA) (from UniProt P37173 23-567) (receptor)",binding,[1],no binding
B1,binding,[2],binds
B2,binding,[1],no binding
same,binding,[3],binds
